From PubChem BioAssay AID588855 (National Center for Advancing Translational Sciences (NCATS), 2011)
Among all 410,000 compounds or so, about 5,000 (1.2%) were called active. Inconclusive results, whose numbers are uncertain, are shown with a selection of clear calls. Calls follow the shape of the dose curve; as a rule, active = well fitted inhibition curve with a large enough effect; inconclusive = small, poorly fitted or top-dose-only effect; inactive = no such curve, though single readings can be large or run the other way. A potency beside an inconclusive call is a rough fit, not a confirmed value.

test: qHTS for Inhibitors of TGF-b; details: HepG2 CAGA-GFP TGF-b/SMAD3 reporter, GFP fluorescence, 18 h, TGF-beta stimulated, 500 pg/mL final; series mostly up to 46.1 µM; activity, negative = inhibition: at the top concentration; also: nearly all actives have a fitted effect of over 65% in size
Summary of the method: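 GFP signal (ex488/em500-530) from TGF-beta-stimulated HEPG2 CAGA-GFP cells, 500 pg/mL final, 18 h at 37 degrees C in DMEM plus 1% FBS, normalized to unstimulated and DMSO-stimulated controls.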
% is scaled to controls: 0 for no effect and ±100 for the full control effect; potency is read from the fitted curve at half-maximal effect; tags tell the direction and shape of the fitted curve.

Structure (SMILES) | activity, negative = inhibition | Potency
O=C(c1ccc2c(c1)OCO2)C1CCCN(Cc2ccccn2)C1 (stereo not drawn) | inactive: -17.7% | –
COc1cc(-n2c(=S)[nH]c3ccc(C)cc3c2=O)c(Cl)cc1Cl | – | inconclusive: 35.5 µM [inhibitor, single point]
COc1ccc(-c2cc(-c3ccccc3)[n+](C)c(-c3ccccc3)c2)cc1 | – | inconclusive: 35.5 µM [inhibitor, single point]
O=C(NCNC(=O)NC1C(=O)NC(=O)N1CO)NC1C(=O)NC(=O)N1CO (stereo not drawn) | inactive: 1.19% | –
COC(=O)C1=C(c2cccc(OCc3ccccc3)c2)C[C@@H]2CC[C@H]1N2C(=O)NCc1ccc(N(C)C)cc1 | – | inconclusive: 22.4 µM [inhibitor, single point]
Cc1ccc(/C=C2/C(=O)NC(=O)N(CCc3ccc(F)cc3)C2=O)o1 | – | inconclusive: 35.5 µM [inhibitor, single point]
COc1ccc(C2CC(=O)Oc3c2c(=O)oc2ccccc32)c(OC)c1OC (stereo not drawn) | inactive: -1.64% | –
O=[N+]([O-])c1cccc(CN2CCN(Cc3ccc(Cl)cc3)CC2)c1 | – | inconclusive: 28.2 µM [inhibitor, partial curve, poor fit]
Cc1ccc(Cn2cc(C=O)c3ccccc32)cc1 | – | active: 0.355 µM
COc1ccc(NC(=O)N2C[C@@H]3C[C@@H](C2)c2cccc(=O)n2C3)c(OC)c1 | inactive: 10.9% | –
O=c1[nH]c2ccccc2n1C1CCN(C(c2cc3ccccc3o2)c2nnnn2Cc2ccccc2)CC1 (stereo not drawn) | – | inconclusive: 15.8 µM [inhibitor, partial curve, poor fit]
COC1CCC(OC2CC(C3(C)CCC4(CC(O)C(C)C(C(C)/C=C(\C)C(=O)C(C)CC(C)C(=O)O)O4)O3)OC3(OC(C4OC(O)(CO)C(C)CC4C)CC3C)C2C)OC1C (stereo not drawn) | – | inconclusive: 0.224 µM [inhibitor, full curve, poor fit]
COc1ccc(CN2CCN(C(=O)Cc3ccccc3)CC2)cc1Br | inactive: -21.2% | –
Cn1c(O)c(C(=Nc2ccccc2)SCc2ccc(Cl)cc2)c(=O)n(C)c1=O | – | inconclusive: 11.2 µM [inhibitor, partial curve, poor fit]
CC1=CC(=O)NP(=O)(Oc2ccc3ccccc3c2)N1 (stereo not drawn) | – | inconclusive: 35.5 µM [inhibitor, single point]
CC1CCN(C(CC(=O)c2ccccc2)C(=O)c2ccccc2)CC1 (stereo not drawn) | – | inconclusive: 17.8 µM [inhibitor, partial curve, poor fit]
C[C@@H]1CN([C@H](C)CO)C(=O)c2c(c3ccccc3n2C)-c2ccccc2CO[C@H]1CN(C)Cc1ccc(-c2ccccc2)cc1 | – | inconclusive: 35.5 µM [inhibitor, single point]
COc1cc(O)cc2c1C(=O)OC(C)CCCC(=O)CCC/C=C\2 (stereo not drawn) | – | inconclusive: 1.12 µM [inhibitor, partial curve, poor fit]
CN1C[C@H](CNC(=O)OCc2ccccc2)C[C@@H]2c3cccc4c3c(cn4C)C[C@H]21 | – | inconclusive: 35.5 µM [inhibitor, single point]
C[C@H]1COC(=O)[C@@H](Cc2ccc(F)cc2)CC/C=C/C[C@H](CC(=O)N(CCO)Cc2ccccc2)C(=O)N1 | inactive: 0.0214% | –
COC(=O)C1=C(c2c(C)noc2C)C[C@@H]2CC[C@H]1N2C(=O)N1CCOCC1 | – | inconclusive: 35.5 µM [inhibitor, single point]

Structure (SMILES) | activity, negative = inhibition | Potency
CCCCCCCCCCCCCCCC[N+](C)(C)C | – | inconclusive: 35.5 µM [inhibitor, single point]
COc1cccc(CN2CCc3nc(N4CCN(c5ncccn5)CC4)ncc3C2)c1 | – | inconclusive: 12.6 µM [inhibitor, partial curve, poor fit]
Cc1c(C=O)c2ccccc2n1Cc1ccccc1 | – | inconclusive: 5.01 µM [inhibitor, full curve, poor fit]
O=C(NCC1=C(c2cccc3ccccc23)C[C@@H]2CC[C@H]1N2Cc1ccco1)c1ccc([N+](=O)[O-])cc1 | – | inconclusive: 20 µM [inhibitor, single point]
Clc1ccc(COC(Cn2ccnc2)c2ccc(Cl)cc2Cl)cc1 (stereo not drawn) | – | inconclusive: 35.5 µM [inhibitor, single point]
CCOC(=O)c1ccc(N=C(c2ccccc2)c2c(O)n(C)c(=O)n(C)c2=O)cc1 | inactive: -6.69% | –
CCC(c1nnnn1-c1ccc2c(c1)OCCO2)N1CCC(n2c(=O)[nH]c3ccccc32)CC1 (stereo not drawn) | – | inconclusive: 22.4 µM [inhibitor, single point]
c1ccc2c(CN3CCCCCCC3)c[nH]c2c1 | – | inconclusive: 7.08 µM [inhibitor, full curve]
CCOP(=O)(OCC)c1nc(-c2ccc(C)cc2)oc1NCc1ccccc1 | – | inconclusive: 10 µM [inhibitor, partial curve]
COc1cccc(C(c2nnnn2Cc2ccccc2)N2CCC(n3c(=O)[nH]c4ccccc43)CC2)c1OC (stereo not drawn) | – | inconclusive: 12.6 µM [inhibitor, single point]
CCOC(=O)c1c(C)n(Cc2ccccc2)c2ccc(OCC(O)CNC(C)(C)C)cc12 (stereo not drawn) | – | inconclusive: 22.4 µM [inhibitor, single point]
CC(C)(C)c1cc(OC(=O)Cc2ccccc2)ccc1O | – | inconclusive: 22.4 µM [inhibitor, single point]
C=CCn1c(O)c(C(C)=NCCO)c(=O)[nH]c1=O | – | inconclusive: 0.112 µM [inhibitor, full curve, poor fit]
COC(=O)c1ccc(NC(=O)CSc2nc3ccc(N4C(=O)C5C6C=CC(C6)C5C4=O)cc3s2)cc1 (stereo not drawn) | inactive: -6.49% | –
Cc1cc(C)cc(NC(=O)c2cnc3sc(N4CCCC4)nn3c2=O)c1 | – | inconclusive: 0.126 µM [inhibitor, full curve, poor fit]
CCC(C#N)(CC)P(=S)(c1ccccc1)c1ccccc1 | – | inconclusive: 35.5 µM [inhibitor, single point]
O=C(c1cc(-c2ccc(Cl)cc2)n(-c2ccc(Cl)cc2Cl)n1)N1CCOCC1 | – | inconclusive: 17.8 µM [inhibitor, partial curve, poor fit]
CCOC(=O)N1CCN(C(=O)Cn2ncc3c4ccccc4n(Cc4ccc(F)cc4)c3c2=O)CC1 | – | inconclusive: 4.47 µM [inhibitor, partial curve, poor fit]
Cc1ccc(NC(=O)COC(=O)/C=C/c2ccco2)cc1S(=O)(=O)N(C)C | – | inconclusive: 22.4 µM [inhibitor, single point]
CCCCn1nnnc1C(c1ccccc1)N1CCC2(CC1)C(=O)NCN2c1ccccc1 (stereo not drawn) | – | inconclusive: 8.91 µM [inhibitor, partial curve, poor fit]
Cc1[nH]c2ccc(OC(F)(F)F)cc2c1CCNCc1cccc([N+](=O)[O-])c1 | – | inconclusive: 22.4 µM [inhibitor, single point]

Structure (SMILES) | activity, negative = inhibition | Potency
CN1C2CCC1CC(OC(=O)c1ccc([N+](=O)[O-])cc1)C2 (stereo not drawn) | inactive: 12.6% | –
CN1CCc2nc(SCc3ccccc3Br)c(C#N)cc2C1 | – | inconclusive: 7.94 µM [inhibitor, partial curve, poor fit]
FC(F)(F)c1ccc2c(c1)NP(=S)(N1CCOCC1)c1nccn1-2 (stereo not drawn) | – | inconclusive: 35.5 µM [inhibitor, single point]
Cc1ccc(-n2cc(CNC(C)Cc3cnccn3)c(-c3cccc(C)c3)n2)cc1 (stereo not drawn) | – | inconclusive: 35.5 µM [inhibitor, single point]
NC1(C(=O)O)CCCc2ccc(N(CCCl)CCCl)cc21 (stereo not drawn) | inactive: -1.22% | –
C1=C(CCNCc2ccccc2)CCCC1 | inactive: 5.62% | –
COc1ccc(NC(=O)N(C)C[C@H]2Oc3c(NC(=O)Nc4ccccc4)cccc3C(=O)N([C@H](C)CO)C[C@@H]2C)cc1 | – | inconclusive: 6.31 µM [inhibitor, single point]
COc1cc2c(cc1OC)C1C(=O)c3ccc4c(c3OC1CO2)CC(C(C)C)O4 (stereo not drawn) | – | inconclusive: 22.4 µM [inhibitor, partial curve, poor fit]
C=CCn1cc(C=C2C(=O)NC(=O)NC2=O)c2ccccc21 | – | inconclusive: 7.08 µM [inhibitor, partial curve, poor fit]
CC12CCC3c4ccc(OP(=O)(N5CC5)N5CC5)cc4CCC3C1CCC2=O (stereo not drawn) | inactive: 5.27% | –
Cc1ccc(C)c(NP(=O)(Oc2ccccc2)Oc2ccccc2)c1 | – | inconclusive: 25.1 µM [inhibitor, partial curve, poor fit]
Cc1cccc(CCNCc2cc3cc(C)cc(C)c3[nH]c2=O)c1 | inactive: -26.5% | –
CCCc1cc(N2CCN(c3ccc(OC)cc3)CC2)n2cnnc2n1 | – | inconclusive: 8.91 µM [inhibitor, partial curve]
CCC12CN3CCN(CC(C3)/C1=N/NC(=O)c1ccncc1)C2 | – | active: 1.12 µM
Cc1ccc(-c2cc(C(F)F)n3ncc(C(=O)N4CCc5ccccc5C4)c3n2)cc1 | – | active: 11.2 µM
COC(=O)C1=C(c2ccc(C(C)=O)cc2)C[C@@H]2CC[C@H]1N2C(=O)NC1CCCCC1 | inactive: -2.63% | –
COC(=O)C1=C(c2cc3ccccc3s2)C[C@@H]2CC[C@H]1N2C(=O)NCc1ccccc1 | – | inconclusive: 28.2 µM [inhibitor, single point]
Cc1ccccc1CN1Cc2cnnn2-c2ccccc2C1C#N (stereo not drawn) | – | inconclusive: 15.8 µM [inhibitor, single point]
COc1cc2nc(CN3CC=C(c4ccccc4)CC3)[nH]c(=O)c2cc1OC | – | inconclusive: 15.8 µM [inhibitor, partial curve, poor fit]
COc1ccccc1-n1c(-c2ccccc2)nc2ccccc2c1=O | inactive: -12.2% | –
CCc1c(C(=O)NN2C(=O)C3C4CCC(O4)C3C2=O)csc1C (stereo not drawn) | – | inconclusive: 0.199 µM [inhibitor, full curve, poor fit]
